# About 240 (0.17%) of roughly 140,000 compounds were called active. Inconclusive means that the source gave no clear call. Such entries were picked first, then a sample of the others. Calls follow the shape of the dose curve; as a rule, active = well fitted inhibition curve with a large enough effect; inconclusive = small, poorly fitted or top-dose-only effect; inactive = no such curve, though single readings can be large or run the other way. Potencies of inconclusive entries are doubtful fits and often do not repeat.
# Assay: Primary qHTS assay for inhibitors of alpha-synuclein gene (SNCA) expression; also: nearly all actives have a fitted effect of over 45% in size;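 as to activity change, negative = inhibition: plate controls were DMSO cells for no effect and cell-free wells for full effect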
# Settings: HEK-293 SNCA-luciferase knock-in, luminescence, 24 h; activity change, negative = inhibition: at 57.2 µM (top of the series) unless noted
# Potency is read from the fitted curve at half-maximal effect; tags tell the direction and shape of the fitted curve.
Compound,Potency,"activity change, negative = inhibition"
CNC(=O)[C@H]1C[C@H](Oc2ccccc2)CN1Cc1cn(C)c2ccc(OC)cc12,"inconclusive: 39.8 µM [inhibitor, single point]",–
CC(C)N(Cc1ccccc1)C(=O)C1CCCN(c2ncnc3onc(-c4ccc(F)cc4)c23)C1 (stereo not drawn),"inconclusive: 39.8 µM [inhibitor, single point]",–
COc1ccc(OC)c(CCNC(=O)c2cnn(-c3ccc(C)cc3C)c2C2CCN(C(=O)OC(C)(C)C)CC2)c1,"inconclusive: 39.8 µM [inhibitor, single point]",–
Cc1ccc(Nc2ccnc(N3CCC(C(=O)NCCCc4ccccc4)CC3)n2)cc1,"inconclusive: 15.8 µM [inhibitor, single point]",–
COc1ccc2[nH]cc(CCNc3ncnc4ccc(-c5cccnc5)cc34)c2c1,"inconclusive: 1 µM [inhibitor, full curve, poor fit]",–
CCOC(=O)c1ccc(N2C(=O)c3[nH]nc(-c4ccc(OCC)cc4)c3C2c2cccs2)cc1 (stereo not drawn),"inconclusive: 8.91 µM [inhibitor, partial curve, poor fit]",–
Cc1cccc(C(=O)N2CCC(Cc3ncc(C)n3CC3CC3)CC2)c1,"inconclusive: 7.08 µM [inhibitor, single point]",–
CC(C)C[C@H](NC(=O)CNC(=O)c1cc(Cl)ccc1Cl)B1OC(=O)CC(CC(=O)O)(C(=O)O)O1 (stereo partly drawn),"inconclusive: 0.341 µM [inhibitor, full curve, poor fit]",–
O=C(c1ccncc1F)N1C[C@@H](COCC2CC2)[C@H](c2ccncc2)C1,"inconclusive: 10 µM [inhibitor, full curve, poor fit]",–
CC(C)(C)C(=O)NCc1c[nH]c2ncccc12,"inconclusive: 56.2 µM [inhibitor, single point]",–
CCc1noc(-c2cccn3c(CNC(=O)c4cc(F)ccc4F)nnc23)n1,–,inactive: 18.4%
O=C(NCc1ccccc1)C1CCCCN1Cc1ccc(-c2ccsc2)cc1 (stereo not drawn),–,inactive: -26.6%
O=C(NC1CCCCC1)N1Cc2[nH]cnc2C[C@H]1c1nc(-c2cccc([N+](=O)[O-])c2)no1,–,inactive: 55.7%
O=C(c1cccnc1)N1CCC2(CC1)CC(N(Cc1ccc(F)cc1)C1CC1)CCO2 (stereo not drawn),"inconclusive: 6.31 µM [inhibitor, full curve, poor fit]",–
O=C1NC2(CCN(Cc3ccc(F)cc3)C2)COc2ccccc21 (stereo not drawn),–,inactive: -22.7% [at 87.6 µM]
Cc1ccc(Cn2c(C(C)NC(=O)c3ccccc3)nc3ccccc32)cc1 (stereo not drawn),"inconclusive: 25.1 µM [inhibitor, single point]",–
COc1ccc2nc(C[C@@H]3C[C@@H](C(C)C)[C@H](CNC(=O)C4CCCCC4)C=C3C)[nH]c2c1,"inconclusive: 31.6 µM [inhibitor, single point]",–
CC1Cc2ccccc2N1S(=O)(=O)c1nnc(NC(=O)c2ccccc2)s1 (stereo not drawn),"inconclusive: 1.78 µM [inhibitor, full curve, poor fit]",–
CCn1cc2nc(SCC(=O)Nc3ccccc3C(F)(F)F)n(Cc3ccc(C)cc3)c(=O)c2n1,"inconclusive: 39.8 µM [inhibitor, single point]",–
O=C(COc1ccc(F)cc1)N1CCC2(CC1)NC(=O)N(c1ccccc1Cl)N2,"inconclusive: 39.8 µM [inhibitor, single point]",–
COCC1CCN(c2ccc(-c3nc(CCCc4ccccc4)no3)cn2)C1 (stereo not drawn),–,inactive: 92.4%

Compound,Potency,"activity change, negative = inhibition"
CN(C)c1nc2c(Br)c(Br)c(Br)c(Br)c2[nH]1,"inconclusive: 2.51 µM [inhibitor, full curve, poor fit]",–
COC(=O)c1ccc(C(=O)OC)c(NC(=O)c2ccc(-c3ccccc3)s2)c1,"inconclusive: 7.94 µM [inhibitor, partial curve, poor fit]",–
COc1ccc(Cn2c(C(=O)O)c(CNCCc3cc(OC)ccc3OC)c3ccc(C)cc32)cc1,"inconclusive: 25.1 µM [inhibitor, single point]",–
O=C(Nc1ccccc1)N[C@H]1C[C@H]2C(=O)NC[C@@H](CCC(=O)N3CCN(c4ccccc4)CC3)N2C1,–,inactive: 13.9%
Cc1nccn1CC(=O)N1CCCn2cc(-c3cccc(C#N)c3)nc21,–,inactive: -3.53%
CCOCCCNC(=O)N1CC(Oc2ccc(-c3nc(-c4ccccc4)no3)cc2)C1,–,inactive: 9.89%
COC[C@@H]1CN(C(=O)c2cc3ccccc3[nH]2)C[C@H]1c1nc(C)no1,–,inactive: 93.6%
COc1cc(C2Nc3c(C)cc(C)cc3-c3cc(C)nn32)cc(OC)c1O (stereo not drawn),"inconclusive: 11.2 µM [inhibitor, partial curve, poor fit]",–
COCCn1ncc(N2CCCC(CC(=O)Nc3cc(OC)cc(OC)c3)C2)cc1=O (stereo not drawn),–,inactive: -16.7%
COc1ccc(C2c3c(n(C)c4ccccc34)C(=O)N2CC(=O)Nc2cccc(F)c2)cc1 (stereo not drawn),"inconclusive: 44.7 µM [inhibitor, partial curve, poor fit]",–
O=C(Nc1cccc(C(F)(F)F)c1)O[C@@H]1CO[C@H]2[C@@H]1OC[C@@H]2NC(=S)Nc1ccc(Cl)cc1,"inconclusive: 0.708 µM [inhibitor, single point]",–
CCCN(CC1CC1)C(=O)c1coc(COc2ccc3sc(C)nc3c2)n1,–,inactive: 7.83%
COCCN1C(=O)c2ccccc2C(C(=O)Nc2ccc(OC)cc2)C12CCCC2 (stereo not drawn),–,inactive: 11.1%
CC(C)c1ccc(Nc2n[nH]c(C(O)c3ccccc3)n2)cc1 (stereo not drawn),–,inactive: 3.7% [at 87.6 µM]
Clc1ccccc1C1(c2ccnc(NCc3ccccc3)n2)CCNCC1,"inconclusive: 25.1 µM [inhibitor, single point]",–
CN(Cc1ccccc1)C(=O)c1nc(-c2ccc(Cl)cc2)n2c1CCCCC2,"inconclusive: 31.6 µM [inhibitor, single point]",–
CCCCOc1cccc(C(=O)N(Cc2ccc(C)o2)c2ccccn2)c1,"inconclusive: 39.8 µM [inhibitor, single point]",–
CCCNC(=O)C(NC(=O)c1cccc(OC)c1)C1CCN(C(=O)c2cccc(F)c2)CC1 (stereo not drawn),"inconclusive: 39.8 µM [inhibitor, single point]",–
O=C(NC1CCCN(Cc2ccc(-c3cncnc3)cc2)C1)c1ccc(Cl)nc1 (stereo not drawn),"inconclusive: 25.1 µM [inhibitor, single point]",–
O=C(NC[C@H]1OC[C@@H](NC2CCCCC2)[C@@H]1O)c1ccc(F)cc1,–,inactive: -9.75% [at 87.6 µM]
Cn1ccc2cc(S(=O)(=O)N3CCCN(C(=O)Nc4ccccc4Br)CC3)ccc21,"inconclusive: 11.2 µM [inhibitor, partial curve]",–

Compound,Potency,"activity change, negative = inhibition"
COc1ccc(OC)c(CNC(=O)CCCn2ccc3cc(S(=O)(=O)N4CCCC4)ccc32)c1,"inconclusive: 28.2 µM [inhibitor, single point]",–
N#Cc1cccc(CN2CC(CNc3ccccc3)C3(C2)CN(c2ccccc2)C3)c1 (stereo not drawn),–,inactive: -23.8% [at 87.6 µM]
c1cc(-c2noc([C@@H]3Cc4nc[nH]c4CN3CC3CCCCC3)n2)ccn1,–,inactive: 9.06% [at 87.6 µM]
COc1cc(OC)cc(C(=O)N2CCC(Cc3nc(-c4ccc(F)cc4)no3)CC2)c1,"inconclusive: 3.98 µM [inhibitor, full curve]",–
CCN1CC2(CCN(C(=O)c3cc4c(cc3OC)CCC4)CC2)OC1=O,"inconclusive: 8.91 µM [inhibitor, single point]",–
O=C(C1CC=CCC1)N1CCC(Cc2nncn2-c2ccccc2)CC1 (stereo not drawn),"inconclusive: 3.16 µM [inhibitor, single point]",–
COC(=O)c1n[nH]n(-c2ccccc2)c1=O,"inconclusive: 39.8 µM [inhibitor, single point]",–
O=C(Cn1nc(-c2ccccc2)n(-c2ccccc2)c1=O)N1C[C@@H]2C[C@H]1CN2,"inconclusive: 0.891 µM [inhibitor, full curve, poor fit]",–
Cc1ccccc1C(=O)NC1CCN(C(=O)c2ccc(-c3cncnc3)cc2)CC1,"inconclusive: 39.8 µM [inhibitor, single point]",–
O=C(Nc1cccnc1)[C@@H]1C[C@H](c2ccc(F)cc2)N(Cc2ccccc2Cl)C1,"inconclusive: 39.8 µM [inhibitor, single point]",–
Cc1ccc(N2CC(c3noc(-c4cccc(N(C)C)c4)n3)CC2=O)cc1 (stereo not drawn),–,inactive: 2.79%
O=C(c1ccc(OCCN2CCCCC2)cc1)c1c(-c2ccc(O)cc2)sc2cc(O)ccc12,inactive,–
COc1ccccc1-c1ccnc(-n2ncc(C(=O)NCCc3cccnc3)c2C2CC2)n1,–,inactive: 89.7%
COc1cc2c(c(OC)c1OC)-c1ccc(OC)c(=O)cc1[C@@H](NC(C)=O)CC2,"inconclusive: 10 µM [inhibitor, partial curve, poor fit]",–
COc1ccc(-c2nc(C3CC3)nc3c2CCN(Cc2ccc(C#N)cc2)CC3)cc1,"inconclusive: 3.55 µM [inhibitor, partial curve, poor fit]",–
O=C(Nc1ccc(Cl)cc1)N1CCN(c2ccc3nnc(-c4ccc(F)cc4)n3n2)CC1,"inconclusive: 22.4 µM [inhibitor, single point]",–
CN1C[C@H](NCc2ccc(F)cc2)CCC[C@@H](C(=O)NC2CC2)CC1=O,–,inactive: 4.74% [at 87.6 µM]
COCC(=O)N[C@@H]1CN(C(=O)c2cc3ccccc3[nH]2)CC[C@@H]1CO,"inconclusive: 35.5 µM [inhibitor, partial curve, poor fit]",–
Cc1ccc(-n2ncc(C(=O)NCCc3ccsc3)c2C2CCN(C(=O)OC(C)(C)C)CC2)cc1C,"inconclusive: 39.8 µM [inhibitor, single point]",–
COCCn1c(=O)c(-c2ccc(F)cc2)nc2cnc(N(C)C)nc21,"inconclusive: 39.8 µM [inhibitor, single point]",–
Cc1ccc(-c2nc(CS(=O)CC(=O)N3CCN(c4ccc(Cl)cc4)CC3)c(C)o2)cc1 (stereo not drawn),"inconclusive: 39.8 µM [inhibitor, single point]",–
